# Laboratory results taken from the supplement of paper PMC7125110.
# ± gives the standard error. Variants at the background level are over-represented here.
# B1: glmS ribozyme (parent)
# chain: AUAAAAGCGCCAGAACUACAGAAAUGUAGUUGACGAGGAGGAGGUUUAUCGAAUUUUCGGCGGAUGCCUCCAAA
# Variants of: B1
# Assay: self-cleavage kobs at 10000 uM GlcN6P; higher = faster cleavage; RNA array
# Settings: with glucosamine-6-phosphate
# Summary of the method: (§1)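 Glucosamine-6-phosphate in HEPES/KCl/Mg(OAc)2 buffer, at 40 μM to 10 mM, was flowed over barcoded ribozyme variants transcribed in situ by E. coli RNA polymerase on sequenced MiSeq chips. Tracking was through a hybridised Cy3 probe at 37 °C. kobs, kcat and KM came from exponential decay fits and weighted Michaelis–Menten fits of normalised per-tile medians.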
row,Variant,self-cleavage kobs at 10000 uM GlcN6P
1,AUAAACGCGCCAGAACUACAGAAAUGUAGUAGACGAGGAGGAGGUCUAUCGAAUUUUCGGCGGAUGCCUCCAAA [A6C U31A U46C],< 1e-05 s⁻¹
2,AUAAAGGCGCCAGAACUACAGAAAUGUAGUUGACGAGGAGGAGGUGUAUCGAAUUGUCGGCGCAUGCCUCCAAA [A6G U46G U56G G63C],< 1e-05 s⁻¹
3,AUAAAACCGCCAGAACUACAGAAAUGUAGUUGAAGAGGAGGAGGUUUAUCGAAUUUUCGGCGGAUGCCUCCAAA [G7C C34A],< 1e-05 s⁻¹
4,AUAAAACCGCCAGAAAUACAGAAAUGUAGUUGACGAGGGGGAGGUUUAUGGAAUUUUCCGCGGAUGCCUCCAAA [G7C C16A A39G C50G G59C],< 1e-05 s⁻¹
5,AUAAAACCGCCAGAACUACAGAAAUGUAGUUGACGAGGAGGAGGUUUGUCUCAUUUUCGGCGGAUGCCUCUAAA [G7C A48G G51U A52C C71U],< 1e-05 s⁻¹
6,AUAAAAUCGCCAGACCUACAGAAAUGUAGUUGACGAGGAGGAGGUUUUUCGAAUUUUCGGCGGAUGCCUCCAAA [G7U A15C A48U],< 1e-05 s⁻¹
7,AUAAAUUCGCCAUAACUACAGAAAUGUAGUCGACGAGGAGGAGGUUUAUCGAAUUUUCGGCGGAUGCCUCCAAA [A6U G7U G13U U31C],< 1e-05 s⁻¹
8,AUAAAAGCGCCAGAACUACAGAAAUGUAGUUGACGAGGAGGAGGUUUAUCGAAUUUUCGGCUGGUGCCUUCAAA [G62U A64G C70U],< 1e-05 s⁻¹
9,AUAAAGGCGCCAGAAUUACAGAAAUGUAGUUGACGAGUAGGAGGUUUAUCGAAUUUUCGGCGGAUGCCUCCAAA [A6G C16U G38U],< 1e-05 s⁻¹
10,AUAAAGGCGCCAGAACUACAGAAAUGUAGUUGUCGAGGAGGAGUUUUAUCGAAUUUUCGGCCGAUGCCUCCAAA [A6G A33U G44U G62C],< 1e-05 s⁻¹
11,AUAAAUACGCCAGAACUACAGAAAUGUACUUGACGAGGAGGAGGUUUAUCGAAUUUUCGGCGGAUGCCUCCAAA [A6U G7A G29C],< 1e-05 s⁻¹
12,AUAAAUGCGCGAGAUCUACAGAAAUGUAGUUGACUAGGCGGAGGUUUAUCGAAUUUUCGGCGGAUGUCUCCAAA [A6U C11G A15U G35U A39C C67U],< 1e-05 s⁻¹
13,AUAAAAACGCCAGAACUACAGAAAUGUAGUUGAUGAGGAGGCGGUUUAUCGAAUUUUCGGCGGAUGCCUCCAAA [G7A C34U A42C],< 1e-05 s⁻¹
14,AUAAACGCGCCAGAACUACAGAAAUGUAGUUGACGAGGAUGUGGUUUAUCGAAUUUUCGGCGGAUGCCUCCAAA [A6C G40U A42U],< 1e-05 s⁻¹
15,AUAAAAUCGCCGGAACUACAGAAAUGUAGUUGACAAGGGGGAGGUUUAACGAAUUUUCGGCGGAUGACUCCAAA [G7U A12G G35A A39G U49A C67A],< 1e-05 s⁻¹
16,AUAAAUGCGCCAGAACUACAGAAAUGUAGUCGACGAGAAGGAGGUUUAUCGAAUUUUCGGCGGAUGCCUACAAA [A6U U31C G38A C70A],< 1e-05 s⁻¹
17,AUAAACGCUCAAGAACUACAGAAAUGUAGUUGACGAGGAGGAGGUUUAUCGAAUUUUCGGCAGAUGCCUCUAAA [A6C G9U C11A G62A C71U],< 1e-05 s⁻¹
18,AUAAAACCACCAGAACUACAGAAAUGUAGUUGACGACGAGGAGGUUUAUCGAAUGUUCGGCGGAUGCGUCCAAA [G7C G9A G37C U55G C68G],< 1e-05 s⁻¹
19,AUAAAUGCGCCAGAACUACAGAAAUGUAGUUGGUGAGGAGGAGUUUUACCGAAUUUGCGGCGGAUGCCUCCAAA [A6U A33G C34U G44U U49C U57G],< 1e-05 s⁻¹
20,AUAAACGAGCCAGAACUACAGAAAUGUAGUUGACGCGGAGGAGGUUUAUCGAAUUUUCGGCGGAUGCCUCCAAA [A6C C8A A36C],< 1e-05 s⁻¹
21,AUAAAAUCGCCAGUACUACAGAAAUGUAGUUGACGCGUAGGAGGCUUAUCGAAUUUUCGGCGGAUGCCUCCAAA [G7U A14U A36C G38U U45C],< 1e-05 s⁻¹
22,AUAAAAUCGCCAGAACUACAGAAAUGUAGUGGACGAGGGGGAGGUUUAUCAAAUUUUCGGCGGAUGCCUCCAAA [G7U U31G A39G G51A],< 1e-05 s⁻¹
23,AUAAAGGCGCUCGAACUACAGAAAUGUAGUUGACAAGGAGGAGGUUUAUUGAAUUUUCGGCGGAUGCCUCCAAA [A6G C11U A12C G35A C50U],< 1e-05 s⁻¹
24,AUAAAUGCGCCUGAACUACAGAAAUGUAGUUGACGAGGAGGAGGUUUAUCGAAUUUUCGGCGGGUGCCUCCAAA [A6U A12U A64G],0.000171 ± 4.1e-05 s⁻¹
25,AUAAAAAUGCCGUAACUACAGAAAUGUAGUUGACGAGGAGGAGGCUUAUCGAAUUUUCGGCGGCUGCCUCCAAA [G7A C8U A12G G13U U45C A64C],< 1e-05 s⁻¹
26,AUAAAUGCGCCAGACCUACAGAAAUGUAGUUGACGAGGAGGACGUUUAUCGAAUUUUCGGCGGAUGCCUCCAAA [A6U A15C G43C],< 1e-05 s⁻¹
27,AUAAAAUCGCCAGACCUACAGAAAUGUAGUUGACGAGGAGGAGGUUUAUCGAAUUUUCGGCGGAUGACUCCAAA [G7U A15C C67A],< 1e-05 s⁻¹
28,AUAAAGGCGCCACAACUACAGAAAUGUAGUUGACGAGAAGGUGGUUUAUCGAAUUUUCGGCGCAUGCCGUCAAA [A6G G13C G38A A42U G63C U69G C70U],< 1e-05 s⁻¹

# Variants of: B1
# Assay: self-cleavage kobs at 2500 uM GlcN6P; higher = faster cleavage; RNA array
# Settings: with glucosamine-6-phosphate
# Summary of the method: as §1
row,Variant,self-cleavage kobs at 2500 uM GlcN6P
1,AUAAAAGCGCCAGAACUACAGAAAUGUAGUUGACGAGGAGGAGGUUUAUCGAAUUUUAGGCGGAGGCCUUCAAA [C58A U65G C70U],6.2e-05 ± 2.7e-05 s⁻¹
2,AUAAAAGCGCCAGAACUACAGAAAUGUAGUUGACGAGGAGGAGGUUUAUCGAAUUUUCGGCUGGUGCCUUCAAA [G62U A64G C70U],< 1e-05 s⁻¹
3,AUAAAAGCGCCAGAACUACAGAAAUGUAGUUGACGAGGAGGAGGUUUAUCGAAUUUUCGGCGGUGUCCUCCAAA [A64U U65G G66U],< 1e-05 s⁻¹
4,AUAAAAGCGCCAGAACUACAGAAAUGUAGUUGACGAGGAGGAGGUUUAUCGAAUUUUCGCCAGAUGCCUCGAAA [G60C G62A C71G],< 1e-05 s⁻¹
5,AUAAAAGCGCCAGAACUACAGAAAUGUAGUUGACGAGGAGGAGGUUUAUCGAAUUUUCUUCGGAUGCCCCCAAA [G59U G60U U69C],< 1e-05 s⁻¹
6,AUAAAAGCGCCAGAACUACAGAAAUGUAGUUGACGAGGAGGAGGUUUAUCGAAUUUUCGGCCGAUACCUCCAAA [G62C G66A],< 1e-05 s⁻¹
7,AUAAAAGCGCCAGAACUACAGAAAUGUAGUUGACGAGGAGGAGGUUUAUCGAAUUUUAGUCGGAUUCCUCCAAA [C58A G60U G66U],< 1e-05 s⁻¹
8,AUAAAAGCGCCAGAACUACAGAAAUGUAGUUGACGAGGAGGAGGUUUAUCGAAUUUUCGGCGGUUGCUACCAAA [A64U C68U U69A],< 1e-05 s⁻¹
9,AUAAAAGCGCCAGAACUACAGAAAUGUAGUUGACGAGGAGGAGGUUUAUCGAAUUUUCGGUGGAAGUCUACAAA [C61U U65A C67U C70A],5.06e-05 ± 2.1e-05 s⁻¹
